Test results from the supplement of paper PMC8728848.
This is one part of the list.

What was measured:
Assay in all cases: glycan array binding signal (z-score within array); higher = stronger binding
Settings in all cases: glycan notation: IUPAC condensed, linker removed
[1] = biological target: Fuc(a1-2)Gal
Summary of the method: (§1)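 From the Consortium for Functional Glycomics database, 3228 arrays were curated, keeping only those whose protein sequence was available. Binding is given as a within-array Z-score averaged across arrays sharing a protein sequence and across linkers. Negative Z-scores can be read as non-binding.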

[2] = biological target: Fuc(a1-2)Gal(b1-3)GalNAc
Summary of the method: as §1

[3] = biological target: Fuc(a1-2)Gal(b1-3)GalNAc(a1-3)[Fuc(a1-2)]Gal(b1-4)Glc
Summary of the method: as §1

[4] = biological target: Fuc(a1-2)Gal(b1-3)GalNAc(a1-3)[Fuc(a1-2)]Gal(b1-4)GlcNAc
Summary of the method: as §1

[5] = biological target: Fuc(a1-2)Gal(b1-3)GalNAc(b1-3)Gal
Summary of the method: as §1

[6] = biological target: Fuc(a1-2)Gal(b1-3)GalNAc(b1-3)Gal(a1-4)Gal(b1-4)Glc
Summary of the method: as §1

[7] = biological target: Fuc(a1-2)Gal(b1-3)GalNAc(b1-4)[Neu5Ac(a2-3)]Gal(b1-4)Glc
Summary of the method: as §1

[8] = biological target: Fuc(a1-2)Gal(b1-3)GlcNAc
Summary of the method: as §1

[9] = biological target: Fuc(a1-2)Gal(b1-3)GlcNAc(b1-2)Man(a1-3)[Fuc(a1-2)Gal(b1-3)GlcNAc(b1-2)Man(a1-6)]Man(b1-4)GlcNAc(b1-4)GlcNAc
Summary of the method: as §1

[10] = biological target: Fuc(a1-2)Gal(b1-3)GlcNAc(b1-2)Man(a1-3)[Fuc(a1-2)Gal(b1-3)GlcNAc(b1-2)Man(a1-6)]Man(b1-4)GlcNAc(b1-4)[Fuc(a1-6)]GlcNAc
Summary of the method: as §1

[11] = biological target: Fuc(a1-2)Gal(b1-3)GlcNAc(b1-3)Gal(b1-4)Glc
Summary of the method: as §1

[12] = biological target: Fuc(a1-2)Gal(b1-3)GlcNAc(b1-3)GalNAc
Summary of the method: as §1

[13] = biological target: Fuc(a1-2)Gal(b1-3)GlcNAc(b1-3)[Fuc(a1-2)Gal(b1-3)GlcNAc(b1-6)]GalNAc
Summary of the method: as §1

[14] = biological target: Fuc(a1-2)Gal(b1-3)GlcNAc(b1-3)[Gal(b1-4)GlcNAc(b1-6)]Gal(b1-4)Glc
Summary of the method: as §1

[15] = biological target: Fuc(a1-2)Gal(b1-3)GlcNAc(b1-3)[Gal(b1-4)[Fuc(a1-3)]GlcNAc(b1-6)]Gal(b1-4)Glc
Summary of the method: as §1

[16] = biological target: Fuc(a1-2)Gal(b1-3)GlcNAc(b1-3)[Neu5Ac(a2-6)Gal(b1-4)GlcNAc(b1-6)]Gal(b1-4)Glc
Summary of the method: as §1

[17] = biological target: Fuc(a1-2)Gal(b1-3)GlcNAc6S
Summary of the method: as §1

[18] = biological target: Fuc(a1-2)Gal(b1-3)[Fuc(a1-4)]GlcNAc
Summary of the method: as §1

[19] = biological target: Fuc(a1-2)Gal(b1-3)[Fuc(a1-4)]GlcNAc(b1-2)Man(a1-3)[Fuc(a1-2)Gal(b1-3)[Fuc(a1-4)]GlcNAc(b1-2)Man(a1-3)]Man(b1-4)GlcNAc(b1-4)GlcNAc
Summary of the method: as §1

[20] = biological target: Fuc(a1-2)Gal(b1-3)[Fuc(a1-4)]GlcNAc(b1-2)Man(a1-3)[Fuc(a1-2)Gal(b1-3)[Fuc(a1-4)]GlcNAc(b1-2)Man(a1-6)]Man(b1-4)GlcNAc(b1-4)GlcNAc
Summary of the method: as §1

[21] = biological target: Fuc(a1-2)Gal(b1-3)[Fuc(a1-4)]GlcNAc(b1-2)Man(a1-3)[Fuc(a1-2)Gal(b1-3)[Fuc(a1-4)]GlcNAc(b1-2)Man(a1-6)]Man(b1-4)GlcNAc(b1-4)[Fuc(a1-6)]GlcNAc(b1-4)[Fuc(a1-6)]GlcNAc
Summary of the method: as §1

[22] = biological target: Fuc(a1-2)Gal(b1-3)[Fuc(a1-4)]GlcNAc(b1-3)[Fuc(a1-3)[Gal(b1-4)]GlcNAc(b1-6)]Gal(b1-4)Glc
Summary of the method: as §1

[23] = biological target: Fuc(a1-2)Gal(b1-3)[Fuc(a1-4)]GlcNAc(b1-3)[Gal(b1-4)GlcNAc(b1-6)]Gal(b1-4)Glc
Summary of the method: as §1

[24] = biological target: Fuc(a1-2)Gal(b1-4)Fuc(a1-3)]GlcNAc(b1-2)Man(a1-3)[Fuc(a1-2)Gal(b1-4)[Fuc(a1-3)]GlcNAc(b1-2)Man(a1-6)]Man(b1-4)GlcNAc(b1-4)GlcNAc
Summary of the method: as §1

[25] = biological target: Fuc(a1-2)Gal(b1-4)Glc
Summary of the method: as §1

[26] = biological target: Fuc(a1-2)Gal(b1-4)Glc6S
Summary of the method: as §1

[27] = biological target: Fuc(a1-2)Gal(b1-4)GlcNAc
Summary of the method: as §1

[28] = biological target: Fuc(a1-2)Gal(b1-4)GlcNAc(b1-2)Man
Summary of the method: as §1

[29] = biological target: Fuc(a1-2)Gal(b1-4)GlcNAc(b1-2)Man(a1-3)[Fuc(a1-2)Gal(b1-4)GlcNAc(b1-2)Man(a1-6)]Man(b1-4)GlcNAc(b1-4)GlcNAc
Summary of the method: as §1

[30] = biological target: Fuc(a1-2)Gal(b1-4)GlcNAc(b1-2)Man(a1-3)[Fuc(a1-2)Gal(b1-4)GlcNAc(b1-2)Man(a1-6)]Man(b1-4)GlcNAc(b1-4)[Fuc(a1-6)]GlcNAc
Summary of the method: as §1

[31] = biological target: Fuc(a1-2)Gal(b1-4)GlcNAc(b1-2)[Fuc(a1-2)Gal(b1-4)GlcNAc(b1-4)]Man(a1-3)[Fuc(a1-2)Gal(b1-4)GlcNAc(b1-2)Man(a1-6)]Man(b1-4)GlcNAc(b1-4)GlcNAc
Summary of the method: as §1

[32] = biological target: Fuc(a1-2)Gal(b1-4)GlcNAc(b1-3)Gal(b1-4)GlcNAc
Summary of the method: as §1

[33] = biological target: Fuc(a1-2)Gal(b1-4)GlcNAc(b1-3)Gal(b1-4)GlcNAc(b1-2)Man(a1-3)[Fuc(a1-2)Gal(b1-4)GlcNAc(b1-3)Gal(b1-4)GlcNAc(b1-2)Man(a1-6)]Man(b1-4)GlcNAc(b1-4)GlcNAc
Summary of the method: as §1

[34] = biological target: Fuc(a1-2)Gal(b1-4)GlcNAc(b1-3)Gal(b1-4)GlcNAc(b1-3)Gal(b1-4)GlcNAc
Summary of the method: as §1

[35] = biological target: Fuc(a1-2)Gal(b1-4)GlcNAc(b1-3)GalNAc
Summary of the method: as §1

[36] = biological target: Fuc(a1-2)Gal(b1-4)GlcNAc(b1-3)[Fuc(a1-2)Gal(b1-4)GlcNAc(b1-6)]GalNAc
Summary of the method: as §1

[37] = biological target: Fuc(a1-2)Gal(b1-4)GlcNAc(b1-3)[Fuc(a1-3)[Gal(b1-4)]GlcNAc(b1-6)]Gal(b1-4)Glc
Summary of the method: as §1

B1: MGL6A (Homo sapiens) (protein)
chain: MTRTYENFQYLENKVKVQGFKNGPLPLQSLLQRLCSGPCHLLLSLGLGLLLLVIICVVGFQNSKFQRDLVTLRTDFSNFTSNTVAEIQALTSQGSSLEETIASLKAEVEGFKQERQAVHSEMLLRVQQLVQDLKKLTCQVATLNNNGEEASTEGTCCPVNWVEHQDSCYWFSHSGMSWAEAEKYCQLKNAHLVVINSREEQNFVQKYLGSAYTWMGLSDPEGAWKWVDGTDYATGFQNWKPGQPDDWQGHGLGGGEDCAHFHPDGRWNDDVCQRPYHWVCEAGLGQTSQESH
glycan array binding signal (z-score) [1]: -0.271 | glycan array binding signal (z-score) [2]: -0.261 | glycan array binding signal (z-score) [3]: -0.26 | glycan array binding signal (z-score) [4]: -0.255 | glycan array binding signal (z-score) [5]: -0.257 | glycan array binding signal (z-score) [6]: -0.268 | glycan array binding signal (z-score) [7]: -0.086 | glycan array binding signal (z-score) [8]: -0.275 | glycan array binding signal (z-score) [9]: -0.209 | glycan array binding signal (z-score) [10]: -0.246 | glycan array binding signal (z-score) [11]: -0.285 | glycan array binding signal (z-score) [12]: -0.261 | glycan array binding signal (z-score) [13]: -0.208 | glycan array binding signal (z-score) [14]: -0.266 | glycan array binding signal (z-score) [15]: -0.403 | glycan array binding signal (z-score) [16]: -0.281 | glycan array binding signal (z-score) [17]: -0.198 | glycan array binding signal (z-score) [18]: -0.287 | glycan array binding signal (z-score) [19]: -0.244 | glycan array binding signal (z-score) [20]: 0.106 | glycan array binding signal (z-score) [21]: -0.257 | glycan array binding signal (z-score) [22]: -0.231 | glycan array binding signal (z-score) [23]: -0.263 | glycan array binding signal (z-score) [24]: -0.231 | glycan array binding signal (z-score) [25]: -0.282 | glycan array binding signal (z-score) [26]: -0.249 | glycan array binding signal (z-score) [27]: -0.112 | glycan array binding signal (z-score) [28]: -0.276 | glycan array binding signal (z-score) [29]: -0.192 | glycan array binding signal (z-score) [30]: -0.241 | glycan array binding signal (z-score) [31]: -0.289 | glycan array binding signal (z-score) [32]: -0.305 | glycan array binding signal (z-score) [33]: -0.249 | glycan array binding signal (z-score) [34]: -0.248 | glycan array binding signal (z-score) [35]: -0.268 | glycan array binding signal (z-score) [36]: -0.233 | glycan array binding signal (z-score) [37]: -0.227
